Measured values published in the supplement of paper PMC11417369.
This is one part of the list.

Tested on: PfSIP2 AP2 domain 1 (GST-tagged)
Assay: gcPBM binding intensity (ln(normalized median fluorescence intensity)); higher = stronger DNA binding
Procedure, shortened: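 Plasmodium falciparum DNA-binding domains carrying a GST tag were expressed in E. coli and applied for 1 h, at about 25 μg on average, to an Agilent 4 × 180k array. The array held primer-extended double-stranded 36-bp intergenic genomic probes together with negative controls, and binding took place in 1× PBS with 1% milk, 0.2 mg/ml BSA, 0.5% salmon testes DNA and 0.03% Triton X-100. An Alexa488 anti-GST antibody detected bound protein, and the array was scanned at 488 nm. Binding intensity is taken as the highest Masliner-normalised natural-log median intensity across replicate spots of either probe orientation.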

| Sequence | gcPBM binding intensity (ln) |
| --- | --- |
| TTTTTTTCTGTGAGTGCATGTAATAAAATAAATTTA [TGCATGCA_site276] | 9.79 |
| TTCAAAAATATATAATGTACACAAATATAAAAGAAT [XGTACX_site1944] | 7.42 |
| TGTTATTTTAAAAAAAAAATTATTAACTTAAAAAAA [CACACA_negctrl_site1641] | 6.68 |
| TATTATTGTCTTTCAAAAAAAAAAAAAAAAAAAAAA [CACACA_negctrl_site1242] | 6.91 |
| TATTTATAATAGTGTACACAATTATAAACTGAATAT [CACACA_site6041] | 7.37 |
| CAACATATATTAATATGTACATATATATAGATATAT [XGTACX_site4107] | 6.98 |
| ATAATTTGTGGACACACACACACACCGACATATATA [CACACA_site8718] | 7.26 |
| TTGTTAATGGTACGAACACACATATAAAGATGCATA [CACACA_site2044] | 7.02 |
| TTATTCACTTCTTTTTAAAAAAAAAAAAAAAAAAAA [CACACA_negctrl_site223] | 6.85 |
| ATTTCGAATATTAAGTGTACAATATAAATATATAAA [XGTACX_site6674] | 7 |
| TTATATGAATTTTAGATTTATAATACAAGAATATTC [CACACA_negctrl_site70] | 6.74 |
| AAAAAAAAAAAAAAAAGTACAAATAAAAAAAAAATA [XGTACX_site4814] | 7.51 |
| ATTAAATACATTAACACACACACAAATATGTACATA [CACACA_site7372] | 7.13 |
| ATATTATATAATATACGTACATATATTATGCATAAA [XGTACX_site7895] | 7.19 |
| TACGTAGCCACACTAACACACACAAATATGCACAAT [CACACA_site8942] | 8.89 |
| TTTTTTTTAAAAAACACACACCTAAACAAGATATTT [CACACA_site6541] | 7.05 |
| CATATTTTTAAATACACACACATAAAAAAAAAAAAA [CACACA_site1095] | 6.94 |
| AAATAAAAAAGTAGTACACACTTCACGATATTTTTT [CACACA_site6015] | 7.33 |
| AAAAATATAAACTGCACACACACAAAAAAAGAAAAA [CACACA_site648] | 7.25 |
| TATATACATATATGTACACACATTACAGATGTACAT [CACACA_site966] | 7.38 |
| AATCTAATATAATGCACACATAAAAAAAAAATCAAA [CACACA_site2714] | 7.29 |
| TATATTTACAATAAAACGTTATTTTTTGTTATTTTC [CACACA_negctrl_site612] | 6.79 |

| Sequence | gcPBM binding intensity (ln) |
| --- | --- |
| GAAAAAAAAAAAAAAAAAAAAAGGAAAAAAGTGAAA [CACACA_negctrl_site996] | 6.65 |
| ATAAAACAATAAAATTGTACATAAATTGATTATACT [XGTACX_site6723] | 6.85 |
| ACGTTTACGTTATTATGTACGTAATATATCATACCT [XGTACX_site5006] | 6.85 |
| GAATAAATAGACGAGTGTACTTTTTTTTAAAAAAAA [XGTACX_site7880] | 7.18 |
| AATTAAATTAGAAGCACACACATATTTATATTTATA [CACACA_site7552] | 6.84 |
| GTATATATTTAAACACGTACACAAAACCCAAAAAAT [XGTACX_site8110] | 7.3 |
| ATACACTCACTCACACGTACAGACAACGGACGATCA [XGTACX_site1097] | 7.42 |
| AATAATAACACCGTGGATACACAATAACAAAGAACT [CACACA_negctrl_site532] | 7.15 |
| AAATATTTTTTTTCTACACACATACAAATATATATT [CACACA_site5325] | 7.18 |
| TTTCATTTAGCTTTTACACACTATATATCATTGATT [CACACA_site6158] | 7.03 |
| TGAGAGTTCTCATATGCACACAAAAAACTTTCATTT [CACACA_site7898] | 8.03 |
| TTGCAACTCTTCAATCGTACACATTATTTATTATAT [XGTACX_site1377] | 7.24 |
| TACATATACATATACACACACACACCCAAATAAATA [CACACA_site1344] | 7.58 |
| TAATATTTATGTTAATGTACAAAAAAACAAAACAAA [XGTACX_site301] | 7.09 |
| GTATGTATATATGTATGTACTTATGTATCATTATTA [XGTACX_site2438] | 7.06 |
| ATAATATATATTAAACGTACATAAAATAATTATGGA [XGTACX_site1670] | 7.12 |
| ATATATATATATCACCGTACTTATATAATAACATGA [XGTACX_site4398] | 9.36 |
| TTTTTTTTTTATTTTTGTACATATATTTCAGTATTA [XGTACX_site8396] | 6.95 |
| TAATTATTCTATTAAGTGCATATATTTTTAAAAAGA | 8.16 |
| ATTTTTATTAAAATATGTACGTATTTTACTCATACA [XGTACX_site5330] | 7.14 |
| ATACAGAAAAAAAACACACACACATAATATACATAC [CACACA_site1933] | 7.21 |
| ATAATATTCGAGTGTGCACACAAACATACATATATA [CACACA_site3396] | 8.79 |

| Sequence | gcPBM binding intensity (ln) |
| --- | --- |
| ACAGATATATTTATTTGTACATATCACCAAAATGGA [XGTACX_site5644] | 6.85 |
| TTAATATAATAAAATCGTACAAATAAAATATAAAAT [XGTACX_site8730] | 7.14 |
| AAAAATGAGAAACACACACACATATATATATATATA [CACACA_site2228] | 9.22 |
| TCTTTAAATCGAGTGTTAAATAATATAATATAAAAA [CACACA_negctrl_site1507] | 6.89 |
| AACCAATATGAGTATACACACATAAATATAAATATA [CACACA_site5968] | 6.95 |
| AAAAAAAAAAAAGATACACACAAAAATGGATATATA [CACACA_site7069] | 6.77 |
| TAAGAATAATGACATAGTACAATTTAATAGATCTAA [XGTACX_site3670] | 6.66 |
| AAGTTTATTTGTTGCACACATATAAGTAGAGAAAAT [CACACA_site3027] | 7.72 |
| TTTTCAAAATAATATTATATCAAATGCTAAAAAGAA [TGCATGCA_negctrl_site588] | 7.39 |
| TACAGATATTATTGCACACATATAAAATACCCCCAA [CACACA_site6014] | 7.9 |
| TTACGTTATATACATACACACCCACGCACAAAAAAA [CACACA_site6537] | 7.46 |
| ATTAAATACTTCGATTGTACAATTTTTTTTTTTTTT [XGTACX_site832] | 7 |
| ATAAAAAACAGTGGCACACATTATGTATCCACCTTT [CACACA_site5958] | 7 |
| ATGCATATAATTATATGTACATATAAGAAATATATA [XGTACX_site517] | 7.05 |
| CATTTATTATGATAAAGTACTTAAATTAATAGATAA [XGTACX_site3566] | 6.89 |
| TATGCACACAATATATGTACTTATATATTTTAAAAA [XGTACX_site5482] | 7.51 |
| TTTTATAAAAAAACTATAAAAATATATAGTACTTAA [CACACA_negctrl_site440] | 6.83 |
| TCTTTTTTTTTTTTTTTTTCTTCTTCTCAATATAAA [GTGCAC_negctrl_site303] | 6.82 |
| TAGTGTATGATAATATGTACATACATTTATATAATA [XGTACX_site6330] | 7 |
| CATAATATGTGGACTTTACACACTTGTTTTAAAATT [CACACA_site819] | 6.87 |
| CATATAAAGATATGAACACACAAAAAGAATATTTCC [CACACA_site6811] | 6.9 |
| AATAATAAAAAATACACACACATATAAATATATTAC [CACACA_site7597] | 6.95 |

| Sequence | gcPBM binding intensity (ln) |
| --- | --- |
| AGGACACATATATGCAAAAAAAAAAAAAAAAAAAAA [TGCATGCA_negctrl_site427] | 6.98 |
| TTCCGAACGACCTAAAGTACATGTATTTCAACTTTT [XGTACX_site1220] | 7.03 |
| TTTTTTTCTCTTTTTATTACAAAAAGGGTTTATATA [TGCATGCA_negctrl_site75] | 6.77 |
| ATTATATTAATATATATATATATATATATAATAATA [CACACA_negctrl_site437] | 7.55 |
| TAATATTATATTATATGTACATAACAAATTATATTT [XGTACX_site4296] | 7.24 |
| ATGAAAAAATTTAAATGTACATTACATATATTTATT [XGTACX_site2524] | 6.98 |
| AAAAAAAATTCCAGTACACACAATAATACTAAAAAT [CACACA_site2801] | 6.99 |
| AAAAATTACAAAAATGCATGTACTATTCATATTTTT [TGCATGCA_site918] | 6.9 |
| ATGAGTAACATATTTGTGCACATATGGTTATTTTTA [GTGCAC_site9541] | 9.14 |
| AAAAAAAATAATATTGTACACACATAAATTCTTTGT [CACACA_site8654] | 6.89 |
| TTTTATAAATACACACGTACGTGTGCATAACGTTTT [XGTACX_site3199] | 7.21 |
| TACTTTTTAAAAATGTTTTATATAATAAAAAGATAT [CACACA_negctrl_site678] | 7.06 |
| TAAAAATATAAAACATGTACATATATGCATATATTT [XGTACX_site8093] | 6.96 |
| ATTATAAACCAGAATGCATGTAGATGAATCTTTTCT [TGCATGCA_site284] | 6.72 |
| ATATCATAAGTAGAAACACACAATTAGATTTTTTCC [CACACA_site2353] | 6.84 |
| TAATTGAGCAAATGAGTGCACAGCATAAAGTATAGT [GTGCAC_site9497] | 10.2 |
| AAATTTAAAATAAGTAGTACATAATATAAATAAATA [XGTACX_site3592] | 7.48 |
| TATAAAAGAAACTATACACACATATTTTAAATATTT [CACACA_site2753] | 6.76 |
| GTACTTGTATTATGCACACATATAATTAAACATATA [CACACA_site3312] | 7.95 |
| TAAGCCTTTCTATTATGTACTTATTAAAACATGTAG [XGTACX_site8022] | 7.12 |
| CTTATATTAAAACACACACACGCACAAAACAGAAAT [CACACA_site1462] | 7.43 |
| AAATTTATTTCTGTGTGTCCACAAAAAAAAATCTTT [XGTACX_site691] | 6.91 |
